We go through 57 sequences from the supplement of paper PMC11417369.

± gives the standard deviation of the averaged measurements. This is one part of the list.

The subject of the test is PfAP2-I AP2 domain 3 (GST-tagged). The experiment in a line: gcPBM binding intensity (ln(normalized median fluorescence intensity)); higher = stronger DNA binding. The procedure, abridged: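 For binding intensity, the highest Masliner-normalised natural-log median intensity across replicate spots of either probe orientation was taken. Protein bound to the array was stained with Alexa488 anti-GST antibody and scanned at 488 nm. The protein, GST-tagged P. falciparum DNA-binding domains from E. coli at about 25 μg on average, had been applied for 1 h to an Agilent 4 × 180k array of primer-extended double-stranded 36-bp intergenic genomic probes and negative controls.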
Consider “AAAATGAAGAAGTGCACACATATATATATTTATATA [CACACA_site507]”, for which the “gcPBM binding intensity (ln)” value was 9.88 ± 0.28.

For “AAGAAAATAAATAATACACACAAGGATTTGTAAATA [CACACA_site690]”, the “gcPBM binding intensity (ln)” value stood at 7.54 ± 0.69.

Regarding “CTTTTTTTTTAAAAATGTACACATTTTTGAAAATAC [XGTACX_site3127]”, the “gcPBM binding intensity (ln)” value was determined as 7.85 ± 0.42.

For the sequence “CATATAATAAATAATACACACATATTGTAAATATAT [CACACA_site5734]”, the “gcPBM binding intensity (ln)” value amounted to 7.61 ± 0.51.

Take AATTGAGTATCGTGAGTGCAAAACGTGGTTCAAAGA: the “gcPBM binding intensity (ln)” value worked out at 10.2 ± 0.25.

For the sequence “TAAAATAAAATAAAATGTACTTTCCTTTTGATAATA [XGTACX_site6288]”, the “gcPBM binding intensity (ln)” value turned out to be 7.3 ± 0.35.

Take “GTAATGAACAAACACAAAAAAAAAAAAAAAATAATA [TGCATGCA_negctrl_site344]”: the “gcPBM binding intensity (ln)” value is 7.38 ± 0.38.

Turning to “TTTTCCCTTACAGAAAAAAAAAAATTCCTAACCCCG [CACACA_negctrl_site650]”, the “gcPBM binding intensity (ln)” value was 7.93 ± 0.42.

On to “TTATATATTTATAATCGTACAATAATTAACGTAAAA [XGTACX_site3206]”, for which the “gcPBM binding intensity (ln)” value was 7.84 ± 0.56.

“ATATATTTTAGGAGAGTGCATTTAATATTATTTAAT [GTGCAC_site9444]”: the “gcPBM binding intensity (ln)” value came out at 10.7 ± 0.62.

On to “TATATGGGATATATGTGTACATATAAAATATGTATC [XGTACX_site3365]”, for which the “gcPBM binding intensity (ln)” value came to 7.89 ± 0.4.

Turning to “TTTTTTTTTTTTTTTACACACATTTGAATAACTTTA [CACACA_site6810]”, the “gcPBM binding intensity (ln)” value came to 8.16 ± 0.45.

With “CTTAATATGAATAAAACACACATATATAATTTGTAA [CACACA_site5120]”, the “gcPBM binding intensity (ln)” value is 7.39 ± 0.48.

As to “AAAAGAATTAAAAAATGTACATATAATATATATATA [XGTACX_site6721]”, the “gcPBM binding intensity (ln)” value is 8.94 ± 0.18.

Consider “AAAAAAGAAGACATCTAAGTAATAGTAACAATGTAT [CACACA_negctrl_site1660]”, for which the “gcPBM binding intensity (ln)” value came to 7.67 ± 0.63.

Consider “GACATATTATTCATGTGTACATATTATATGTATATA [XGTACX_site3442]”, for which the “gcPBM binding intensity (ln)” value stood at 7.8 ± 0.37.

In the case of “TATAAATATACACCCACACACATATATAAATAAATA [CACACA_site7717]”, the “gcPBM binding intensity (ln)” value worked out at 8.04 ± 0.57.

AAGAATTTAGAAGGCATGCACTTAAACATGCATATA: the “gcPBM binding intensity (ln)” value worked out at 8.47 ± 0.84.

For the sequence “ATATCTTCACTTATATGTACTTACATTTTTTTTTTT [XGTACX_site8696]”, the “gcPBM binding intensity (ln)” value came to 8.04 ± 0.71.

Consider “ATAACTATATACATCTGTACATAATACATAGATAAA [XGTACX_site2795]”, for which the “gcPBM binding intensity (ln)” value was 7.78 ± 0.46.

On to “ATTTGTATATAATATATATAATTTTTTTTTTTTGTT [XGTACX_negctrl_site425]”, for which the “gcPBM binding intensity (ln)” value was determined as 7.32 ± 0.45.

For the sequence “TATACACATAGACACACACACATACACGCACATACA [CACACA_site6908]”, the “gcPBM binding intensity (ln)” value was determined as 8.27 ± 0.33.

In the case of “TAATAAGTATCAAAATGTACATGACAAAAATAATTT [XGTACX_site8961]”, the “gcPBM binding intensity (ln)” value came to 7.88 ± 0.79.

For the sequence “TCTAAAAAAATTATATCACACATTATAAAGCATATT [CACACA_site4885]”, the “gcPBM binding intensity (ln)” value came out at 7.55 ± 0.54.

Turning to “ATATATATGTATATATGTACATATATGTATATATAT [XGTACX_site4772]”, the “gcPBM binding intensity (ln)” value turned out to be 8.14 ± 0.59.

“ATAATATATGCAAAAACATGCACATAATATGTAAAA [TGCATGCA_site742]”: the “gcPBM binding intensity (ln)” value came to 8.51 ± 0.69.

On to “ATAATTTTATATAAATGTACATACATTTTTATTATA [XGTACX_site7368]”, for which the “gcPBM binding intensity (ln)” value stood at 7.63 ± 0.35.

With “ATTAAATCATATGAATGTACGGATATATATATTTCC [XGTACX_site8650]”, the “gcPBM binding intensity (ln)” value was found to be 7.53 ± 0.38.

In the case of “TGATAAATTTTCACATGTACATATATAGAATAACCT [XGTACX_site2860]”, the “gcPBM binding intensity (ln)” value was 8.19 ± 0.24.

On to “ATTTGAAAAAATACTACACACCATATTGTTAATTTT [CACACA_site3829]”, for which the “gcPBM binding intensity (ln)” value was 7.68 ± 0.54.

As for “AAGATTCATATAAAAAGTACAAAAAGAAAAAAATAA [XGTACX_site6033]”, the “gcPBM binding intensity (ln)” value amounted to 7.59 ± 0.71.

On to “CATAATATATATTGAGCATGCTACTATTGTTAGAAA [TGCATGCA_site740]”, for which the “gcPBM binding intensity (ln)” value stood at 7.59 ± 0.59.

In the case of “ACATATAAGATATATACACACATATAAATACATTAA [CACACA_site7763]”, the “gcPBM binding intensity (ln)” value was 7.8 ± 0.34.

Regarding “AAAAAAAAAAACTACACACATACAAATATTTATATA [CACACA_site2574]”, the “gcPBM binding intensity (ln)” value amounted to 7.32 ± 0.3.

As to “AGAATAGTGGAAAACACACACGTTTGAGATATGGAC [CACACA_site4782]”, the “gcPBM binding intensity (ln)” value amounted to 8.07 ± 1.

Take “TTATAAAAAGAACAATTAAAAAAAAATAAAATAAAA [XGTACX_negctrl_site398]”: the “gcPBM binding intensity (ln)” value stood at 7.61 ± 0.81.

For “TTTTTATGTTCTATATATATATATATATATATATAT [GTGCAC_negctrl_site306]”, the “gcPBM binding intensity (ln)” value turned out to be 9.29 ± 0.45.

Turning to “GCACGTGTGATTAGATGTACATAACATGTATATGTC [XGTACX_site4632]”, the “gcPBM binding intensity (ln)” value was 7.91 ± 0.53.

Take “CACCCACCCACATACACACACATACACATATATATA [CACACA_site1722]”: the “gcPBM binding intensity (ln)” value was determined as 8.55 ± 0.71.

For “CAAATAAAAAAAGTAGCACACATGAATAAAATATAT [CACACA_site3130]”, the “gcPBM binding intensity (ln)” value worked out at 8.04 ± 0.69.

Consider “ATACATACATATGTATGTACGTATGTATGTATGTAT [XGTACX_site3853]”, for which the “gcPBM binding intensity (ln)” value amounted to 8 ± 0.2.

As to “TTTTTATTTTTTGTCTGTACATATATAAATTTATTA [XGTACX_site1525]”, the “gcPBM binding intensity (ln)” value was 7.88 ± 0.47.

Regarding “GATATAAGGGTATGAAGTACATAAATATTTTATGCT [XGTACX_site1886]”, the “gcPBM binding intensity (ln)” value was determined as 7.79 ± 0.55.

As for “TATGCACGCGAACACACACACACAACTAAAAAATAA [CACACA_site7251]”, the “gcPBM binding intensity (ln)” value came out at 8.21 ± 0.3.

In the case of “GGAAACCCTCCCAAATGTACTTTTATAAAAAAATAC [XGTACX_site5502]”, the “gcPBM binding intensity (ln)” value came out at 8.2 ± 0.6.

“ATATAAGTACATATAACACACATATATTATAAGTAT [CACACA_site2647]”: the “gcPBM binding intensity (ln)” value is 8.19 ± 0.23.

In the case of “TTTGCCATAAAACACACACACATGTAAACCCCCTTT [CACACA_site1646]”, the “gcPBM binding intensity (ln)” value was found to be 8.98 ± 0.18.

“TATACTCAGAAACACACACACACACCCAAAAAAAAA [CACACA_site4434]”: the “gcPBM binding intensity (ln)” value turned out to be 8.4 ± 0.28.

Turning to “ATACATATATAAATATGTACACACATATGTATGATC [XGTACX_site8219]”, the “gcPBM binding intensity (ln)” value was determined as 7.82 ± 0.32.

For “AAAAAAAAAAAAAAAACACACATACACCCAGACACA [CACACA_site5807]”, the “gcPBM binding intensity (ln)” value is 8.88 ± 0.42.

In the case of “TTTATATAAGGACATGCATGCTATTATTAAATATAT [TGCATGCA_site1011]”, the “gcPBM binding intensity (ln)” value came to 7.79 ± 0.57.

For the sequence “TAATATATAAATATATGTACATAATAAATAGGATAT [XGTACX_site3661]”, the “gcPBM binding intensity (ln)” value stood at 8.13 ± 0.57.

Turning to “ACTTCATAGGTTACCTGTACATATAAGGAGTTATCA [XGTACX_site4110]”, the “gcPBM binding intensity (ln)” value came to 7.82 ± 0.53.

Consider “TACGCGAAATGAATATGTACATATATGAGGGCATAT [XGTACX_site4293]”, for which the “gcPBM binding intensity (ln)” value amounted to 8.16 ± 0.54.

Regarding “ACTATTTAAAAATATGGTACACGAAATTCAAGAGAA [XGTACX_site5903]”, the “gcPBM binding intensity (ln)” value was found to be 8.17 ± 0.57.

“ATGAATTAACCTAATCGTACAATAAATATTATTATA [XGTACX_site596]”: the “gcPBM binding intensity (ln)” value stood at 7.55 ± 0.39.

For the sequence “ATATATATATATGTATGTATATATATATGTTTGATT [XGTACX_negctrl_site62]”, the “gcPBM binding intensity (ln)” value is 9.48 ± 0.41.
